# The name of at least one read-out is uncertain. For some assays here: At least one compound was matched to its structure with a doubt left.
# What was measured:
# Type in all cases: in vivo
# [1] = Example 1: UUO mice, mean body weight change following surgery; settings: PO QD days 1-14, mg/kg: Telmisartan 5, Iguratimod 15, Repirinast 30, Lobenzarit 48, Actarit 60, Ifenprodil 30, Bemithyl 200, Bromantane 20, Emoxypine 160, Udenafil 40, Suplatast Tosylate 60, Istradefylline 8; for Mean Body Weight Change Following Surgery, day 1 post surgery: day 1, male C57BL/6 mice; for Mean Body Weight Change Following Surgery, day 2 post surgery: day 2, male C57BL/6 mice; for Mean Body Weight Change Following Surgery, day 5 post surgery: day 5, male C57BL/6 mice; for Mean Body Weight Change Following Surgery, day 8 post surgery: day 8, male C57BL/6 mice; for Mean Body Weight Change Following Surgery, day 10 post surgery: day 10, male C57BL/6 mice; for Mean Body Weight Change Following Surgery, day 14 post surgery: day 14, male C57BL/6 mice
# Experimental: (§1) Male 9-12 week old C57BL/6 mice of 23-25 grams body weight were used. All mice were acclimated for a minimum of 5 days prior to the start of the study and housed individually in microisolators throughout the study in a 12:12 light-dark cycle on a standard maintenance mouse chow diet (Harlan Teklad 2018) with food and water given ad libitum. Prior to surgery, all mice were weighed for baseline body weight.
# (§2) The UUO surgical intervention was performed according to previously described methods known in the art (Le Meur Y et al., Macrophage accumulation at a site of renal inflammation is dependent on the M-CSF/c-fms pathway, J Leukocyte Biol., 72:530-537; 2002).
# (§3) All mice were first anesthetized by intraperitoneal injection with a rodent cocktail (ketamine 10 mg/mL and Xyaline 1 mg/mL) in normal saline (10 μL/g body weight). Pedal reflex and movement of the vibrissae were used to determine the state of unconsciousness. A state of unconsciousness was confirmed after a period of about 5 minutes in all animals. All mice were then shaved on the left side of the abdomen. The shaved area was first swabbed with iodine and then swabbed with alcohol. A vertical incision was made through the skin with a #22 scalpel and the skin was then retracted. A further incision of about 2.5 cm was then made through the peritoneum avoiding any major blood vessels. The peritoneum was then retracted and the left kidney was exposed.
# (§4) The left kidney was then brought to the surface by hooking the ureter directly beneath the kidney with sterile forceps and gently manipulating the kidney upward. The ureter was ligated at two points directly below the kidney with 5-0 surgical silk with excess suture cut away and discarded post-ligation. The kidney was then gently placed back to its correct anatomical position and the abdomen was lavaged with 1 mL sterile saline to replenish fluid loss. The peritoneum and then skin were sutured with 5-0 Mersilene, and the incision site was gently wiped with iodine. All mice were then placed individually in clean cages that were set on top of a thermal blanket until recovery at about 30-60 minutes later. In some examples, sham surgery was performed as a control by following all steps of the UUO surgical intervention procedure except ligation.
# (§5) Following surgery, the mice were divided into 14 individual study groups of 8 mice each and, following post-surgical recovery, administered a once-daily oral treatment for 14 days. The mice in 12 of the 14 study groups (hereafter known as “treatment groups”) had all received the UUO surgical ligation and were treated individually with a distinct pharmacologic compound as set out in Table 1. The mice in 2 of the 14 study groups were treated individually with a pharmaceutically acceptable vehicle with no active ingredient. The pharmaceutically acceptable vehicle in all groups was 0.5% carboxymethyl cellulose (CMC). All mice were sacrificed with CO2 on post-surgical day 15.
# (§6) The dose selected for the animal studies was determined by taking the maximum known human daily dose, dividing by the average weight of an adult (˜60-70 kg) to get a human mg/kg dose. Then that number was multiplied by 12 to convert to a mouse dose based on conventional dosing tables. See Nair and Jacob, J Basic Clin Pharm March 2016-May 2016, 7(2):27-31.
# Body weight: The body weights were measured on days 1, 2, 5, 8, 10 and 14 using a laboratory balance.
# Body weights were measured on post-surgical days 1, 2, 5, 8, 10 and 14 as previously described. The mean body weight change of each study group was calculated using the body weight average of all mice in each study group.
# [2] = test system: C57BL/6 mice with UUO surgical ligation; assay: Example 1: UUO mice, renal function evaluation (plasma BUN, creatinine); settings: for BUN / Creatinine: plasma at sacrifice day 15, group mean, male C57BL/6 mice, PO QD days 1-14, mg/kg: Telmisartan 5, Iguratimod 15, Repirinast 30, Lobenzarit 48, Actarit 60, Ifenprodil 30, Bemithyl 200, Bromantane 20, Emoxypine 160, Udenafil 40, Suplatast Tosylate 60, Istradefylline 8; for BUN: * p<0.05 vs vehicle Bonferroni, # Tamhane
# Experimental: as §1, §2, §3, §4, §5, §6
# Serum collection: A blood sample was then collected from all mice and plasma analyzed for urea nitrogen and creatinine. Plasma was stored at −80° C. for possible future analysis.
# Renal Function Evaluation: Renal function and disease progression was evaluated by BUN (blood urea nitrogen) as previously described. The BUN of each study group consisted of the BUN average of all mice in each study group.
# [3] = test system: C57BL/6 mice with UUO surgical ligation; assay: Example 1: UUO mice, renal fibrosis evaluation (Sirius Red histology score); settings: male C57BL/6 mice, PO QD days 1-14, mg/kg: Telmisartan 5, Iguratimod 15, Repirinast 30, Lobenzarit 48, Actarit 60, Ifenprodil 30, Bemithyl 200, Bromantane 20, Emoxypine 160, Udenafil 40, Suplatast Tosylate 60, Istradefylline 8; for Histology Score (Sirius Red Stain Scoring): 0=normal, 1=light, 2=moderate, 3=severe, group mean; for % Reduction Fibrosis (vs vehicle): from Sirius Red histology score
# Experimental: as §1, §2, §3, §4, §5, §6
# Histopathology: Formalin-fixed kidney cross-section samples were subjected histopathological scoring with Sirius Red staining, and imaged at a magnification of ×20, using standard techniques. All three sections were stained and evaluated. The analysis was performed by a board-certified veterinarian pathologist. The presence of interstitial damage and severity score was assessed according to the following criteria: 0=normal, 1=light, 2=moderate, 3=severe.
# Values are arithmetic means. Comparison between the study group and positive control group was performed using a two-tailed, heteroscedastic (two-sample unequal variance) Student's T-Test. […]
# [4] = test system: C57BL/6 mice with UUO surgical ligation; assay: Example 1: UUO mice, kidney weight evaluation (ligated vs non-ligated kidney); settings: PO QD days 1-14, mg/kg: Telmisartan 5, Iguratimod 15, Repirinast 30, Lobenzarit 48, Actarit 60, Ifenprodil 30, Bemithyl 200, Bromantane 20, Emoxypine 160, Udenafil 40, Suplatast Tosylate 60, Istradefylline 8
# Experimental: as §1, §2, §3, §4, §5, §6
# Kidney weight: The UUO was then examined in situ to ensure that the surgical ligation ties remained patent. Both the ligated (UUO) and non-ligated kidneys were removed for analysis. Weights of both kidneys were measured using a laboratory balance.
# Kidney Weight Evaluation: Kidney weight indicating, which indicates functional and pathological changes in the kidney, was evaluated by measuring the weight of both the ligated (UUO) and non-ligated kidneys as previously described. The ligated and non-ligated kidney weights of each study group consisted of the respective kidney weight averages of all mice in each study group.
# [5] = group mean, day 15, male C57BL/6 mice
Structure (SMILES),"Mean Body Weight Change Following Surgery, day 1 post surgery [1]","Mean Body Weight Change Following Surgery, day 2 post surgery [1]","Mean Body Weight Change Following Surgery, day 5 post surgery [1]","Mean Body Weight Change Following Surgery, day 8 post surgery [1]","Mean Body Weight Change Following Surgery, day 10 post surgery [1]","Mean Body Weight Change Following Surgery, day 14 post surgery [1]","BUN in comparison to control groups, in words ([2]; Example 1, male C57BL/6 mice, PO QD days 1-14, doses of Table 1)",BUN [2],Creatinine [2],Histology Score (Sirius Red Stain Scoring) [3],% Reduction Fibrosis (vs vehicle) [3],"Difference (L − R) of kidney weights [4, 5]","L-kidney (ligated, UUO) weight [4, 5]","R-kidney (non-ligated) weight [4, 5]",Reduction of kidney weight difference (L − R) versus vehicle ([4]; male C57BL/6 mice)
"C[C@@H]([C@H](O)c1ccc(O)cc1)N1CCC(Cc2ccccc2)CC1 (racemic) [Ifenprodil, 4-[2-(4-benzylpiperidin-1-ium-1-yl)-1-hydroxypropyl]phenol; 2,3,4-trihydroxy-4-oxobutanoate]",0 g,-0.97 g,-0.31 g,-0.41 g,0.40 g,0.59 g,less renal dysfunction and disease progression than the positive control treatment,20.125 mg/dL,0.20 mg/dL,1.77,22%,,,,
"CC(=O)Nc1ccc(CC(=O)O)cc1 [Actarit, (4-Acetamidophenyl)acetic acid]",0 g,-1.65 g,-1.15 g,-0.65 g,-0.18 g,0.00 g,,17.875* mg/dL,0.20 mg/dL,1.71,25%,0.295 g,0.426 g,0.131 g,21%
"CCSc1nc2ccccc2[nH]1 [Bemithyl, 2-Ethylsulfanyl-1H-benzoimidazole]",0 g,0.14 g,0.84 g,0.86 g,1.30 g,1.60 g,,15.6125*# mg/dL,0.20 mg/dL,1.29,43%,,,,
"Brc1ccc(NC2C3CC4CC(C3)CC2C4)cc1 (centres unmarked) [Bromantane, N-(4-Bromophenyl)adamantan-2-amine]",0 g,-0.45 g,-0.06 g,0.01 g,0.60 g,0.89 g,,16.2*# mg/dL,0.20 mg/dL,1.88,17%,,,,
"CCn1c(=O)c2c(nc(/C=C/c3ccc(OC)c(OC)c3)n2C)n(CC)c1=O [Istradefylline, 8-[(E)-2-(3,4-dimethoxyphenyl)vinyl]-1,3-diethyl-7-methyl-3,7-dihydro-1H-purine-2,6-dione]",0 g,-0.25 g,-0.50 g,-0.34 g,-0.05 g,-0.18 g,,29.85 mg/dL,0.25 mg/dL,2.35,−4%,,,,
"O=C(O)c1ccccc1Nc1cc(Cl)ccc1C(=O)O [Lobenzarit, 2-[(2-Carboxyphenyl)amino]-4-chlorobenzoic acid]",0 g,-0.88 g,-0.97 g,-0.42 g,-0.49 g,-0.04 g,,18.4625* mg/dL,0.20 mg/dL,2.27,0%,,,,

# Reference: patent US12280026B2, “Use of repirinast in the prophylaxis or treatment of renal fibrosis or kidney disease” (ALGERNON PHARMACEUTICALS INC., priority 2018, dated 2025)
